In ChEMBL document CHEMBL5214994, “Discovery of Proline-Based p300/CBP Inhibitors Using DNA-Encoded Library Technology in Combination with High-Throughput Screening” (J Med Chem, 2022):

What was measured:
[1] = target: T1, CREB-binding protein/Histone acetyltransferase p300 (Homo sapiens, UniProt Q09472+Q92793); test: Inhibition of CBP/p300 in human COLO 320HSR cells assessed as reduction of C-myc levels measured after 24 hrs by HTRF assay; assay type: cell-based
[2] = Lipophilicity, log D of the compound at pH 7.4 by chromatographic method; assay type: physicochemical; settings: buffer
[3] = Volume of distribution at steady state in male Wistar Han rat at 0.53 mg/kg, iv measured after 24 hrs by LC-MS/MS analysis; assay type: ADME, organism-based; settings: in vivo, read-out: Vdss
[4] = AUC (0 to infinity) in male Wistar Han rat at 0.53 mg/kg, iv measured after 24 hrs by LC-MS/MS analysis; assay type: ADME, organism-based; design: dose 0.53 mg/kg, time 24 hrs, route iv; settings: in vivo
[5] = Half-life in male Wistar Han rat at 0.53 mg/kg, iv measured after 24 hrs by LC-MS/MS analysis; assay type: ADME, organism-based; settings: in vivo
[6] = Cmax in male Wistar Han rat at 0.53 mg/kg, iv measured after 24 hrs by LC-MS/MS analysis; assay type: ADME, organism-based; design: time 24 hrs, dose 0.53 mg/kg, route iv; settings: in vivo
[7] = Clearance in male Wistar Han rat at 0.53 mg/kg, iv measured after 24 hrs by LC-MS/MS analysis; assay type: ADME, organism-based; settings: in vivo
[8] = Mean residence time in male Wistar Han rat at 0.53 mg/kg, iv measured after 24 hrs by LC-MS/MS analysis; assay type: ADME, organism-based; settings: in vivo
[9] = Volume of distribution at steady state in male Wistar Han rat at 0.6 mg/kg, iv measured after 24 hrs by LC-MS/MS analysis; assay type: ADME, organism-based; settings: in vivo, read-out: Vdss
[10] = AUC (0 to infinity) in male Wistar Han rat at 0.6 mg/kg, iv measured after 24 hrs by LC-MS/MS analysis; assay type: ADME, organism-based; design: time 24 hrs, dose 0.6 mg/kg, route iv; settings: in vivo
[11] = Mean residence time in male Wistar Han rat at 0.6 mg/kg, iv measured after 24 hrs by LC-MS/MS analysis; assay type: ADME, organism-based; settings: in vivo
[12] = Clearance in male Wistar Han rat at 0.6 mg/kg, iv measured after 24 hrs by LC-MS/MS analysis; assay type: ADME, organism-based; settings: in vivo
[13] = Half-life in male Wistar Han rat at 0.6 mg/kg, iv measured after 24 hrs by LC-MS/MS analysis; assay type: ADME, organism-based; settings: in vivo
[14] = Cmax in male Wistar Han rat at 0.6 mg/kg, iv measured after 24 hrs by LC-MS/MS analysis; assay type: ADME, organism-based; design: time 24 hrs, dose 0.6 mg/kg, route iv; settings: in vivo
[15] = Half-life in male Wistar Han rat at 0.5 mg/kg, iv or 1 mg/kg, po measured after 24 hrs by LC-MS/MS analysis; assay type: ADME, organism-based; settings: in vivo
[16] = Mean residence time in male Wistar Han rat at 0.54 mg/kg, iv measured after 24 hrs by LC-MS/MS analysis; assay type: ADME, organism-based; settings: in vivo
[17] = target: T1, CREB-binding protein/Histone acetyltransferase p300; test: Inhibition of CBP/p300 in human COLO 320HSR cells assessed as decrease in H3K18 acetylation at 0.3 to 1000 nM measured by western blot analysis; assay type: cell-based; settings: dose 0.3-1000 nM
[18] = AUC (0 to infinity) in male Wistar Han rat at 0.54 mg/kg, iv measured after 24 hrs by LC-MS/MS analysis; assay type: ADME, organism-based; design: time 24 hrs, dose 0.54 mg/kg, route iv; settings: in vivo
[19] = target: CREB-binding protein (Homo sapiens) (UniProt Q92793); test: Inhibition of CBP (unknown origin) using Histone H3 substrate at 1 uM relative to control
Chain of UniProt Q92793 (Q92793 whole entry, looked up): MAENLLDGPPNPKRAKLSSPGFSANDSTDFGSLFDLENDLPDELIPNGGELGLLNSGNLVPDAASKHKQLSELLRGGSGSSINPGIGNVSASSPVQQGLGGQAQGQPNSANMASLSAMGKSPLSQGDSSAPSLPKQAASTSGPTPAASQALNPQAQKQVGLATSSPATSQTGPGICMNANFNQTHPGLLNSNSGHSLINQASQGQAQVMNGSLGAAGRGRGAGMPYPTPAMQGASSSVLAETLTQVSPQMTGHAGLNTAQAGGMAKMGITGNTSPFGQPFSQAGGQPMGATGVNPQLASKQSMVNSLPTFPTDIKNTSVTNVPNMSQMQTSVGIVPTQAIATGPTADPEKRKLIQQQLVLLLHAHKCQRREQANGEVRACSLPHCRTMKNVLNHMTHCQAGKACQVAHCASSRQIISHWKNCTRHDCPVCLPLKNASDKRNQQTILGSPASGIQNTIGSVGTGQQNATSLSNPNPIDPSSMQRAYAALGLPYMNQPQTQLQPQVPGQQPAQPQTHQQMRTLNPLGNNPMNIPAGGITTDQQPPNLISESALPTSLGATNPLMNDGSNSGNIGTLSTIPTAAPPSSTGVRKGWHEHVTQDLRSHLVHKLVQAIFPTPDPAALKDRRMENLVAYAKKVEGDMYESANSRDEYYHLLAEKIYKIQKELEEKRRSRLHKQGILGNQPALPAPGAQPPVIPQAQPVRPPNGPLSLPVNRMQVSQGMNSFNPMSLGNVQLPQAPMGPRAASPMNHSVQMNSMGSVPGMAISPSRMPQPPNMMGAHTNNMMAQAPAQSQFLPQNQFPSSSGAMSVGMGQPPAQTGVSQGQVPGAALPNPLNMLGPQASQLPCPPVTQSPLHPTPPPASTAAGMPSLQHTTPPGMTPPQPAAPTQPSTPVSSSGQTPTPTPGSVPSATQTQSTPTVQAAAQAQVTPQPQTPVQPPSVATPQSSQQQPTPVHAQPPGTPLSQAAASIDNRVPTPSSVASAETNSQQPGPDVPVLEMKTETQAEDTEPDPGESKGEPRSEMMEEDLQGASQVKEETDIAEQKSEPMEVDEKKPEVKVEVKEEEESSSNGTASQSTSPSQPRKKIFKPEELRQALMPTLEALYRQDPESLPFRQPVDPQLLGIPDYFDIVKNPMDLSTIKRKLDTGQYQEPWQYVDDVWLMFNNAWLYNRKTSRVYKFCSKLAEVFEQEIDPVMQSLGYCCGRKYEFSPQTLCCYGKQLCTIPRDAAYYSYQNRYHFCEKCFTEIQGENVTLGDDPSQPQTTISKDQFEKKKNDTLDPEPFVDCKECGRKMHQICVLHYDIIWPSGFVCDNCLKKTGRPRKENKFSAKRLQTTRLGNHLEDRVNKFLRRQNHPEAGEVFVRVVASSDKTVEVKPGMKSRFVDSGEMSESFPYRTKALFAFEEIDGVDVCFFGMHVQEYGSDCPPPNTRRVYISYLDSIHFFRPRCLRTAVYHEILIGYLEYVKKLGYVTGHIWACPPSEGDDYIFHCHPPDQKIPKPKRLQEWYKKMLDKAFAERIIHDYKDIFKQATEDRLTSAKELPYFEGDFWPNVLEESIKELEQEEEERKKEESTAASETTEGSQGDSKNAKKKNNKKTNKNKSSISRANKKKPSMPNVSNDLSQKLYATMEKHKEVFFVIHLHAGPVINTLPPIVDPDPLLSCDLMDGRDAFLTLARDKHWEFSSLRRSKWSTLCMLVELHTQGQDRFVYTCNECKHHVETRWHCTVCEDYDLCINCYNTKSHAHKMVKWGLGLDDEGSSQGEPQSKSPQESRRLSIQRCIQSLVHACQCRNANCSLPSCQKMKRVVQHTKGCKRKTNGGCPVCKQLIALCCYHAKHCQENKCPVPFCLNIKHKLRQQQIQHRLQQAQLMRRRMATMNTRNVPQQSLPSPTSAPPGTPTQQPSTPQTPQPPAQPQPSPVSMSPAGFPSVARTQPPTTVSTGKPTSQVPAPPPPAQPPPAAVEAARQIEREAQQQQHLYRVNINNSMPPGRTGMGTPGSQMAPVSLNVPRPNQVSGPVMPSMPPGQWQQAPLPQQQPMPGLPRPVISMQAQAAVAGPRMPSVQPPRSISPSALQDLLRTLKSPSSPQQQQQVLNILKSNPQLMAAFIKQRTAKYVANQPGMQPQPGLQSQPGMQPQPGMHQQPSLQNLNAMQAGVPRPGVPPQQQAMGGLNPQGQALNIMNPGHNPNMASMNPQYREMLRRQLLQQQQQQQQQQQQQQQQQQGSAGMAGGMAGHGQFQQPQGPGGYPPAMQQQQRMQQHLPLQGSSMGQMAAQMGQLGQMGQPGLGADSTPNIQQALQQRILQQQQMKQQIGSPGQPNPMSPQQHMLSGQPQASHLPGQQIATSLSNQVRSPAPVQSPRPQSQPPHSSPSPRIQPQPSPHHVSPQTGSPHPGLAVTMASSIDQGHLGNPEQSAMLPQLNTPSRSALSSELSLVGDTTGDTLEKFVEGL

[20] = Stability in male Wistar Han rat plasma assessed as compound remaining at 1 uM measured up to 4 hrs measured by LC-MS/MS analysis; assay type: ADME, cell-free; settings: read-out: Stability
[21] = Clearance in male Wistar Han rat at 0.54 mg/kg, iv measured after 24 hrs by LC-MS/MS analysis; assay type: ADME, organism-based; settings: in vivo
[22] = target: T1, CREB-binding protein/Histone acetyltransferase p300; test: Inhibition of CBP/p300 in human COLO 320HSR cells assessed as decrease in H3K27 acetylation at 0.3 to 1000 nM measured by western blot analysis; assay type: cell-based; settings: dose 0.3-1000 nM
[23] = target: Histone acetyltransferase p300 (Homo sapiens, UniProt Q09472); test: Inhibition of p300 (unknown origin) using Histone H3 substrate at 1 uM relative to control
[24] = Cmax in male Wistar Han rat at 0.54 mg/kg, iv measured after 24 hrs by LC-MS/MS analysis; assay type: ADME, organism-based; design: time 24 hrs, dose 0.54 mg/kg, route iv; settings: in vivo
[25] = Half-life in male Wistar Han rat at 0.54 mg/kg, iv measured after 24 hrs by LC-MS/MS analysis; assay type: ADME, organism-based; settings: in vivo
[26] = Volume of distribution at steady state in male Wistar Han rat at 0.54 mg/kg, iv measured after 24 hrs by LC-MS/MS analysis; assay type: ADME, organism-based; settings: in vivo, read-out: Vdss

Question: For `COc1ccc(NC(=O)[C@H]2CCCN2C(=O)C2(c3ccccc3)CCCC2)cc1`, which pEC50 [1] is on record?
Answer: 5.3

Question: Which pEC50 [1] does the source give for `O=C(Nc1ccc2[nH]ncc2n1)[C@H]1CCCN1C(=O)C1(c2ccc(Cl)cc2)CCC1` here?
Answer: 7.4

Question: What about the chromatographic logD [2] of the same compound?
Answer: 4.7

Question: With `N#Cc1ccc(C2(C(=O)N3CCC[C@@H]3C(=O)Nc3ccc4[nH]ncc4n3)CCC2)cc1` as the compound, how does the Vd [3] read?
Answer: 2.7 L/kg

Question: And the pEC50 [1]?
Answer: 7.3

Question: And the AUC(0-inf) [4]?
Answer: 59 ng·h/mL

Question: And the half-life [5]?
Answer: 19.8 min

Question: And the chromatographic logD [2]?
Answer: 3.4

Question: And the Cmax [6]?
Answer: 64 ng/mL

Question: What about the clearance [7] of the same compound?
Answer: 150 mL/min/kg

Question: And the MRT [8]?
Answer: 18 min

Question: For `O=C(Nc1ccc2[nH]ncc2n1)[C@H]1CCCN1C(=O)C1(c2ccc(Cl)cc2)CC(F)(F)C1`, which Vd [9] is on record?
Answer: 4.3 L/kg

Question: And the AUC(0-inf) [10]?
Answer: 70 ng·h/mL

Question: What about the pEC50 [1] of the same compound?
Answer: 7.8

Question: What about the MRT [11] of the same compound?
Answer: 30 min

Question: And the clearance [12]?
Answer: 150 mL/min/kg

Question: And the half-life [13]?
Answer: 34.8 min

Question: And the chromatographic logD [2]?
Answer: 4.7

Question: And the Cmax [14]?
Answer: 89 ng/mL

Question: With `O=C(Nc1ccc2[nH]ccc2n1)[C@H]1CCCN1C(=O)C1(c2cccc(Cl)c2)CCCC1` as the compound, how does the pEC50 [1] read?
Answer: 7.3

Question: And the chromatographic logD [2]?
Answer: 5.9

Question: Which pEC50 [1] does the source give for `COc1ccc(NC(=O)[C@H]2CCCN2C(=O)C2(c3cccc(Cl)c3)CCCC2)cc1` here?
Answer: 4.7

Question: For `COc1ccc(NC(=O)[C@H]2CCCN2C(=O)C2(c3ccc(Cl)cc3)CCC2)cc1`, which pEC50 [1] is on record?
Answer: 5.7

Question: With `O=C(Nc1ccc(O)cc1)[C@H]1CCCN1C(=O)C1(c2cccc(Cl)c2)CCCC1` as the compound, how does the pEC50 [1] read?
Answer: 6.6

Question: And the chromatographic logD [2]?
Answer: 5.5

Question: Which pEC50 [1] does the source give for `O=C(Nc1cnc2[nH]ncc2c1)[C@H]1CCCN1C(=O)C1(c2cccc(Cl)c2)CCCC1` here?
Answer: 5.5

Question: What about the chromatographic logD [2] of the same compound?
Answer: 4.9

Question: With `COc1ccc(NC(=O)[C@H]2CCN2C(=O)C2(c3ccc(Cl)cc3)CCCC2)cc1` as the compound, how does the pEC50 [1] read?
Answer: 5.3

Question: What does the source list for `O=C(Nc1ccc2[nH]ncc2n1)[C@H]1COCCN1C(=O)C1(c2ccc(Cl)cc2)CC(F)(F)C1`?
Answer: half-life [15]: 35.4 min; pEC50 [1]: 8.1; chromatographic logD [2]: 4.5

Question: Which pEC50 [1] does the source give for `O=C(Nc1ccc2[nH]nnc2c1)[C@H]1CCCN1C(=O)C1(c2cccc(Cl)c2)CCCC1` here?
Answer: 5.4

Question: What about the chromatographic logD [2] of the same compound?
Answer: 5.2

Question: Which pEC50 [1] does the source give for `COc1ccc(NC(=O)[C@H]2CCCCN2C(=O)C2(c3ccc(Cl)cc3)CCCC2)cc1` here?
Answer: 5.3

Question: Which pEC50 [1] does the source give for `COc1ccc(C2(C(=O)N3CCC[C@@H]3C(=O)Nc3ccc4[nH]ncc4n3)CCC2)cc1` here?
Answer: 7.1

Question: What about the chromatographic logD [2] of the same compound?
Answer: 3.9

Question: What does the source list for `O=C(Nc1ccc2[nH]ncc2n1)[C@H]1CCCN1C(=O)C1(c2ccc(F)cc2)CCC1`?
Answer: pEC50 [1]: 7; chromatographic logD [2]: 4.1

Question: For `O=C(Nc1ccc2[nH]c(=O)[nH]c2c1)[C@H]1CCCN1C(=O)C1(c2cccc(Cl)c2)CCCC1`, which pEC50 [1] is on record?
Answer: 6.5

Question: What about the chromatographic logD [2] of the same compound?
Answer: 4.4

Question: For `O=C(Nc1ccc2[nH]ncc2n1)[C@H]1C[C@@H](F)CN1C(=O)C1(c2ccc(Cl)cc2)CCC1`, which Vd [3] is on record?
Answer: 2.8 L/kg

Question: What about the pEC50 [1] of the same compound?
Answer: 8.2

Question: What about the AUC(0-inf) [4] of the same compound?
Answer: 50 ng·h/mL

Question: And the half-life [5]?
Answer: 21 min

Question: What about the chromatographic logD [2] of the same compound?
Answer: 4.3

Question: What about the Cmax [6] of the same compound?
Answer: 77 ng/mL

Question: And the clearance [7]?
Answer: 134 mL/min/kg

Question: And the MRT [8]?
Answer: 21.6 min

Question: Which pEC50 [1] does the source give for `CNC(=O)c1cccc(NC(=O)[C@H]2CCCN2C(=O)C2(c3cccc(Cl)c3)CCCC2)c1` here?
Answer: < 4.3

Question: What about the chromatographic logD [2] of the same compound?
Answer: 5.5

Question: Which pEC50 [1] does the source give for `COc1ccc(NC(=O)[C@H]2CCCN2C(=O)C2(c3ccc(Cl)cc3)CCCC2)cc1` here?
Answer: 5.7

Question: For `O=C1Cc2cc(NC(=O)[C@H]3CCCN3C(=O)C3(c4cccc(Cl)c4)CCCC3)ccc2N1`, which pEC50 [1] is on record?
Answer: 6.3

Question: And the chromatographic logD [2]?
Answer: 5

Question: With `COc1ccc(NC(=O)[C@H]2CCCN2C(=O)C2(c3cccc(Cl)c3)CCCC2)nc1` as the compound, how does the pEC50 [1] read?
Answer: 6.3

Question: What about the chromatographic logD [2] of the same compound?
Answer: 6.8

Question: For `O=C(Nc1ccc2[nH]ncc2c1)[C@H]1CCCN1C(=O)C1(c2cccc(Cl)c2)CCCC1`, which pEC50 [1] is on record?
Answer: 6.7

Question: What about the chromatographic logD [2] of the same compound?
Answer: 5.4

Question: With `CNC(=O)c1ccc(NC(=O)[C@H]2CCCN2C(=O)C2(c3cccc(Cl)c3)CCCC2)cc1` as the compound, how does the pEC50 [1] read?
Answer: 6.5

Question: What about the chromatographic logD [2] of the same compound?
Answer: 5.3

Question: For `COc1ccc(NC(=O)[C@H]2CCCN2C(=O)C2(c3ccc(Cl)cc3)CCCCC2)cc1`, which pEC50 [1] is on record?
Answer: 5.3

Question: With `O=C(Nc1ccc2[nH]ncc2n1)[C@H]1CCCN1C(=O)C1(c2cccc(Cl)c2)CCCC1` as the compound, how does the pEC50 [1] read?
Answer: 7.9

Question: Which pEC50 [1] does the source give for `COc1ccc(NC(=O)[C@H]2CCCN2C(=O)C(C)(C)c2ccc(Cl)cc2)cc1` here?
Answer: 5.1

Question: For `O=C(Nc1ccc2[nH]ncc2n1)[C@H]1C[C@@H](F)CN1C(=O)C1(c2ccc(Cl)cc2)CC(F)(F)C1`, which pEC50 [1] is on record?
Answer: 8.5

Question: And the MRT [16]?
Answer: 22.2 min

Question: And the inhibition [17]?
Answer: Active

Question: What about the AUC(0-inf) [18] of the same compound?
Answer: 102 ng·h/mL

Question: What about the inhibition [19] of the same compound?
Answer: 80%

Question: And the chromatographic logD [2]?
Answer: 4.4

Question: What about the remaining at 4 h, 1 µM [20] of the same compound?
Answer: > 98%

Question: What about the clearance [21] of the same compound?
Answer: 95 mL/min/kg

Question: And the inhibition [22]?
Answer: Active

Question: And the inhibition [23]?
Answer: 97%

Question: And the Cmax [24]?
Answer: 210 ng/mL

Question: And the half-life [25]?
Answer: 18 min

Question: What about the Vd [26] of the same compound?
Answer: 2 L/kg

Calls of active or inactive are those of the source. The rule behind the calls is not given here.
